Assay results taken from patent publication US20200087367A1 (ACCELERON PHARMA, published 2020).
Where “and” joins values, the source holds several entries; their conditions need not be identical. Equal entries are not always repeated. Blank lines part the entries; values can stand above or below the binder they belong to.

Key:
BMP9 [1] = biological target: T1, BMP9 (human, UniProt Q9UK05 320-429); assay: SPR kinetics; CHO-cell-derived protein
T1 construct: also called hBMP-9; hBMP9
T1 sequence (looked up): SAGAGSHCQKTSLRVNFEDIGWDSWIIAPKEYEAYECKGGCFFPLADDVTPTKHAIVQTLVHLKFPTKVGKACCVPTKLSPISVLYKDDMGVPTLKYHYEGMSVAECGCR

TGF-β2 = biological target: T2, TGF-β2 (human, UniProt P61812 303-414); assay: SPR ligand screen; '-' = Binding undetectable
T2 construct: also called hTGF-β2
T2 sequence (looked up): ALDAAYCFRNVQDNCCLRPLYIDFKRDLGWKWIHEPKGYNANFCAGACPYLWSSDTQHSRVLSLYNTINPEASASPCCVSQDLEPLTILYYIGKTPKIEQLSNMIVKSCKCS

activin A = biological target: T3, activin A (human, UniProt P08476 311-426); assay: SPR ligand screen; '-' = Binding undetectable
T3 construct: also called hActivin A
T3 sequence (looked up): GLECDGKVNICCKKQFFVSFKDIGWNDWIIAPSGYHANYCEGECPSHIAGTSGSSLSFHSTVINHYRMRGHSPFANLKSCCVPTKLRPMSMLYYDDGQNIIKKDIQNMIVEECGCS

TGF-β3 = biological target: T4, TGF-β3 (human, UniProt P10600 301-412); assay: SPR ligand screen; '-' = Binding undetectable
T4 construct: also called hTGF-β3
T4 sequence (looked up): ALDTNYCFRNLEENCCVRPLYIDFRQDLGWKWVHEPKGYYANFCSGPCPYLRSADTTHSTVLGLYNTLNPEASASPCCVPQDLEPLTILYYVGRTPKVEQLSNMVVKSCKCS

TGF-β1 = biological target: T5, TGF-β1 (human, UniProt P01137 partial chain); assay: SPR ligand screen; '-' = Binding undetectable
T5 construct: also called hTGF-β1

BMP7 = biological target: T6, BMP7 (human, UniProt P18075 293-431); assay: SPR ligand screen; '-' = Binding undetectable
T6 construct: also called hBMP-7
T6 sequence (looked up): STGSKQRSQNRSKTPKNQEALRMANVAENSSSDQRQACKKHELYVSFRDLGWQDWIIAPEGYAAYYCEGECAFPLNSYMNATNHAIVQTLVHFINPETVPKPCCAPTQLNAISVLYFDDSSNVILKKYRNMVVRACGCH

hBMP-2/7 = biological target: T7, hBMP-2/7 (human, UniProt P12643 283-396; P18075 293-431); assay: SPR ligand screen; '-' = Binding undetectable
T7 sequence (looked up) 1: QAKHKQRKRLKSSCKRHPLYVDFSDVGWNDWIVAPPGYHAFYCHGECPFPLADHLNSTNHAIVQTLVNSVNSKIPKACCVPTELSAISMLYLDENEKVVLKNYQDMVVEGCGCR
T7 sequence (looked up) 2: T6 sequence (looked up)

BMP2 = biological target: T8, BMP2 (human, UniProt P12643 283-396); assay: SPR ligand screen; '-' = Binding undetectable
T8 construct: also called hBMP-2
T8 sequence (looked up): T7 sequence (looked up) 1

BMP10 [2] = biological target: T9, BMP10 (human, UniProt O95393 317-424); assay: SPR kinetics; CHO-cell-derived protein
T9 construct: also called hBMP-10; hBMP10
T9 sequence: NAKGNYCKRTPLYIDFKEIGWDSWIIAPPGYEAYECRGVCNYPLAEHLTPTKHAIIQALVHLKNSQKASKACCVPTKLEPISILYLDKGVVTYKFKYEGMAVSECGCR

BMP5 [3] = biological target: T10, BMP5 (human, UniProt P22003 317-454, limits assumed); assay: SPR (Biacore), ligand amine-coupled to chip, Fc fusion injected
T10 sequence (looked up): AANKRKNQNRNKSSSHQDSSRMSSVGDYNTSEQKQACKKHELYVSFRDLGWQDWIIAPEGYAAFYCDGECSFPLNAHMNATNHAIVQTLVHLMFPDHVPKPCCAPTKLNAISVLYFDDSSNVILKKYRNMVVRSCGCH

BMP9 [4] = biological target: T1, BMP9; assay: SPR kinetics
BMP10 [5] = biological target: T9, BMP10; assay: cell-based or functional assay
BMP5 [6] = biological target: T10, BMP5; assay: SPR (Biacore), BMP10pro-Fc captured by anti-Fc antibody, ligand injected
Experimental: (§1) The BMP10pro-Fc proteins were separately was captured onto the system using an anti-Fc antibody, and ligands were injected and allowed to flow over the captured receptor protein. […] The mouse Fc equivalent constructs behaved similarly. […] The affinity of BMP10pro(22-315)-hFc for BMP3b was not assessed.

BMP9 [7] = biological target: T1, BMP9; assay: as above
Experimental: as §1

BMP3b = biological target: T11, BMP3b (human, UniProt P55107 369-478); assay: as above
T11 construct: also called GDF10
T11 sequence (looked up): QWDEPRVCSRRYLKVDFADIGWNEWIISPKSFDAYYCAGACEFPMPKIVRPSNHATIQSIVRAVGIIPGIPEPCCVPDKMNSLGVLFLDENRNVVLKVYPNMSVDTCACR
Experimental: as §1

BMP10 [8] = biological target: T9, BMP10; assay: cell-based or functional assay; remark: listed apart in the source
BMP10 [9] = biological target: T9, BMP10; assay: SPR kinetics; HEK293-cell-derived protein
BMP9 [10] = biological target: T1, BMP9; assay: SPR kinetics; HEK293-cell-derived protein
BMP9 [11] = biological target: T1, BMP9; assay: SPR (Biacore), BMPRII-Fc captured by anti-Fc antibody, ligand injected
Experimental: (§2) A Biacore™-based binding assay was used to determine the ligand binding selectivity of the BMPRII-Fc protein complex described above. The BMPRII-Fc homodimer was captured onto the system using an anti-Fc antibody, and ligands were injected and allowed to flow over the captured receptor protein.

BMP10 [12] = biological target: T9, BMP10; assay: as above
Experimental: as §2

BMP9 [13] = biological target: T1, BMP9; assay: SPR (Biacore), ligand amine-coupled to chip, Fc fusion injected
BMP6 = biological target: T12, BMP6 (human, UniProt P22004 382-513, limits assumed); assay: as above
T12 sequence (looked up): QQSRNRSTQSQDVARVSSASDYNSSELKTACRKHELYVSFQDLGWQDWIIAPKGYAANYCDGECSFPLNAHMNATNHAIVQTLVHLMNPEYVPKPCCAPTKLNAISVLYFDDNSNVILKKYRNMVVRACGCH

BMP10 [14] = biological target: T9, BMP10; assay: as above

Sequence of TGF-β1 (P01137 279-390 limits assumed): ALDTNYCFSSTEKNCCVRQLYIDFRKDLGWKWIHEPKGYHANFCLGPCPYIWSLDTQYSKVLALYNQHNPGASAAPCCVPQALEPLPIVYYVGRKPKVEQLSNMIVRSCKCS

B4: BMP10pro(22-315)-hFc (Fc fusion)
chain: SPIMNLEQSPLEEDMSLFGDVFSEQDGVDFNTLLQSMKDEFLKTLNLSDIPTQDSAKVDPPEYMLELYNKFATDRTSMPSANIIRSFKNEDLFSQPVSFNGLRKYPLLFNVSIPHHEEVIMAELRLYTLVQRDRMIYDGVDRKITIFEVLESKGDNEGERNMLVLVSGEIYGTNSEWETFDVTDAIRRWQKSGSSTHQLEVHIESKHDEAEDASSGRLEIDTSAQNKHNPLLIVFSDDQSSDKERKEELNEMISHEQLPELDNLGLDSFSSGPGEEALLQMRSNIIYDSTARIRTG[human IgG1 Fc and a few adjoining residues not shown]
notes: C-terminal lysine may optionally be absent; also called BMP10 propeptide-Fc fusion protein
IC50 (BMP10), SBE4-luc luciferase reporter in HMVEC cells (BMP10 [5]): 61.2 ng/ml and 517 pM | binding result (BMP5 [6]): binds | binding result (BMP9 [7]): binds

B5: BMP10pro(22-312)-hFc (Fc fusion)
chain: SPIMNLEQSPLEEDMSLFGDVFSEQDGVDFNTLLQSMKDEFLKTLNLSDIPTQDSAKVDPPEYMLELYNKFATDRTSMPSANIIRSFKNEDLFSQPVSFNGLRKYPLLFNVSIPHHEEVIMAELRLYTLVQRDRMIYDGVDRKITIFEVLESKGDNEGERNMLVLVSGEIYGTNSEWETFDVTDAIRRWQKSGSSTHQLEVHIESKHDEAEDASSGRLEIDTSAQNKHNPLLIVFSDDQSSDKERKEELNEMISHEQLPELDNLGLDSFSSGPGEEALLQMRSNIIYDSTATG[human IgG1 Fc and a few adjoining residues not shown]
notes: C-terminal lysine may optionally be absent
IC50 (BMP10), SBE4-luc luciferase reporter in HMVEC cells (BMP10 [5]): 17.7 ng/ml and 150 pM | binding result (BMP5 [6]): binds | binding result (BMP3b): binds | binding result (BMP9 [7]): binds | BMP10 antagonizing activity against that of BMP10pro(22-315)-hFc (BMP10 [8]): ≥ 3 fold

B8: ActRIIA-hFc (Fc fusion)
chain: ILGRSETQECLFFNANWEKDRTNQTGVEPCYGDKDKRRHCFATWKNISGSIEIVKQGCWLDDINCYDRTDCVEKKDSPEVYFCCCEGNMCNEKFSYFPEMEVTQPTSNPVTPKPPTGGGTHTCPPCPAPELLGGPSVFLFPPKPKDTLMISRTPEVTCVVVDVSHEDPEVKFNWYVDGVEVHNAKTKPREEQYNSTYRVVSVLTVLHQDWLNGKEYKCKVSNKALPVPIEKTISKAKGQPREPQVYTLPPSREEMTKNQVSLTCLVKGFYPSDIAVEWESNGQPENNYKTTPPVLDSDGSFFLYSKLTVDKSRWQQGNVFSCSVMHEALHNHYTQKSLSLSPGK
notes: Extracellular domain of human ActRIIA, linker, human Fc
Kd (BMP5 [3]): 1.14 nM | Kd (BMP9 [13]): 10.4 nM | Kd (BMP6): 0.556 nM | Kd (BMP10 [14]): 0.333 nM

Continued, values first:

Kd (BMP9 [1]): 4.2 pM | koff (BMP9 [1]): 0.00035 s⁻¹ | binding result (TGF-β2): no binding (tested: 100 nM) | binding result (activin A): no binding (tested: 100 nM) | binding result (TGF-β3): no binding (tested: 50 nM) | binding result (TGF-β1): no binding (tested: 100 nM) | binding result (BMP7): no binding (tested: 100 nM) | binding result (hBMP-2/7): no binding (tested: 100 nM) | binding result (BMP2): no binding (tested: 100 nM) | Kd (BMP10 [2]): 0.086 nM | koff (BMP10 [2]): 0.0023 s⁻¹
B1: hENG(26-359)-hFc (Fc fusion)
chain: ETVHCDLQPVGPERDEVTYTTSQVSKGCVAQAPNAILEVHVLFLEFPTGPSQLELTLQASKQNGTWPREVLLVLSVNSSVFLHLQALGIPLHLAYNSSLVTFQEPPGVNTTELPSFPKTQILEWAAERGPITSAAELNDPQSILLRLGQAQGSLSFCMLEASQDMGRTLEWRPRTPALVRGCHLEGVAGHKEAHILRVLPGHSAGPRTVTVKVELSCAPGDLDAVLILQGPPYVSWLIDANHNMQIWTTGEYSFKIFPEKNIRGFKLPDTPQGLLGEARMLNASIVASFVELPLASIVSLHASSCGGRLQTSPAPIQTTPPKDTCSPELLMSLITGGG[human IgG1 Fc not shown]
notes: also called Human ENG(26-359)-hFc

binding result (BMP5 [3]): binds
B2: ActRIIA-mFc (Fc fusion)
chain: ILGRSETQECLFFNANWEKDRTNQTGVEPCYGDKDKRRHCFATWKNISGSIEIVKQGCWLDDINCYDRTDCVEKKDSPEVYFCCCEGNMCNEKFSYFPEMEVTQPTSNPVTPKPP
notes: not shown: linker and mouse Fc domain

Kd (BMP9 [1]): 4.3 pM | koff (BMP9 [1]): 0.00024 s⁻¹ | fold decrease of the BMP9 dissociation rate against the full-length construct hENG(26-586)-hFc (BMP9 [4]): 10 fold | binding result (TGF-β2): no binding (tested: 100 nM) | binding result (activin A): no binding (tested: 100 nM) | binding result (TGF-β3): no binding (tested: 50 nM) | binding result (TGF-β1): no binding (tested: 100 nM) | binding result (BMP7): no binding (tested: 100 nM) | binding result (hBMP-2/7): no binding (tested: 100 nM) | binding result (BMP2): no binding (tested: 100 nM) | Kd (BMP10 [2]): 0.14 nM | koff (BMP10 [2]): 0.0028 s⁻¹
B3: hENG(26-346)-hFc (Fc fusion)
chain: ETVHCDLQPVGPERDEVTYTTSQVSKGCVAQAPNAILEVHVLFLEFPTGPSQLELTLQASKQNGTWPREVLLVLSVNSSVFLHLQALGIPLHLAYNSSLVTFQEPPGVNTTELPSFPKTQILEWAAERGPITSAAELNDPQSILLRLGQAQGSLSFCMLEASQDMGRTLEWRPRTPALVRGCHLEGVAGHKEAHILRVLPGHSAGPRTVTVKVELSCAPGDLDAVLILQGPPYVSWLIDANHNMQIWTTGEYSFKIFPEKNIRGFKLPDTPQGLLGEARMLNASIVASFVELPLASIVSLHASSCGGRLQTSPAPIQTTPPTG[human IgG1 Fc and a few adjoining residues not shown]

Kd (BMP10 [9]): 0.095 nM | koff (BMP10 [9]): 0.0019 s⁻¹ | Kd (BMP9 [10]): 6.7 pM | koff (BMP9 [10]): 0.00034 s⁻¹
B6: hENG(26-378)-hFc (Fc fusion)
chain: ETVHCDLQPVGPERDEVTYTTSQVSKGCVAQAPNAILEVHVLFLEFPTGPSQLELTLQASKQNGTWPREVLLVLSVNSSVFLHLQALGIPLHLAYNSSLVTFQEPPGVNTTELPSFPKTQILEWAAERGPITSAAELNDPQSILLRLGQAQGSLSFCMLEASQDMGRTLEWRPRTPALVRGCHLEGVAGHKEAHILRVLPGHSAGPRTVTVKVELSCAPGDLDAVLILQGPPYVSWLIDANHNMQIWTTGEYSFKIFPEKNIRGFKLPDTPQGLLGEARMLNASIVASFVELPLASIVSLHASSCGGRLQTSPAPIQTTPPKDTCSPELLMSLIQTKCADDAMTLVLKKELVATG[human IgG1 Fc and a few adjoining residues not shown]
notes: also called Human ENG(26-378)-hFc (truncated Fc)

Kd (BMP9 [11]): 2.1 nM | koff (BMP9 [11]): 0.026 s⁻¹ | kon (BMP9 [11]): 1.2e+07 M⁻¹ s⁻¹ | Kd (BMP10 [12]): 0.1 nM | koff (BMP10 [12]): 0.0025 s⁻¹ | kon (BMP10 [12]): 2.6e+07 M⁻¹ s⁻¹
B7: BMPRII-Fc fusion protein (Fc fusion)
chain: SQNQERLCAFKDPYQQDLGIGESRISHENGTILCSKGSTCYGLWEKSKGDINLVKQGCWSHIGDPQECHYEECVVTTTPPSIQNGTYRFCCCSTDLCNVNFTENFPPPDTTPLSPPHSFNRDETG[human IgG1 Fc and a few adjoining residues not shown]
notes: Processed polypeptide; extracellular domain of human BMPRII, linker, human IgG1 Fc; C-terminal lysine may optionally be absent; also called BMPRII-Fc homodimer; homodimeric BMPRII-Fc
